# In PubChem BioAssay AID485294 (National Center for Advancing Translational Sciences (NCATS), 2010):
# Screen size: about 370,000 compounds; about 150 (0.041%) were called active. Inconclusive means that the source gave no clear call. Such entries were picked first, then a sample of the others. Calls follow the shape of the dose curve; as a rule, active = well fitted inhibition curve with a large enough effect; inconclusive = small, poorly fitted or top-dose-only effect; inactive = flat fitted curve, though single readings scatter. No potency is given beside an inconclusive call; the fits are too rough.
# Molecular target: Beta-lactamase (Escherichia coli (strain K12)) (UniProt P00811)
# Assay: qHTS Inhibitors of AmpC Beta-Lactamase (assay with detergent); also: nearly all actives have a fitted effect of over 25% in size;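 as to activity change, negative = inhibition: 0% = no-compound wells and -100% = no-enzyme wells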
# Details: AmpC hydrolysis of nitrocefin, absorbance 480 nm, 0.01% Triton; activity change, negative = inhibition: at 114 µM (top of the series)
# Method in brief: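 20 mM phosphate pH 7.0 + 0.01% (detergent screen) or 0.0001% Triton X-100; 5.3 nM AmpC reagent; cpd preinc 15 min RT; nitrocefin (800 uM stock) to start; A480 q20 s × 4 min; Activity was normalised to no-enzyme and no-compound control wells.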
# Potency is read from the fitted curve at half-maximal effect; tags tell the direction and shape of the fitted curve.
# Chain of UniProt P00811 (P00811 whole entry, looked up): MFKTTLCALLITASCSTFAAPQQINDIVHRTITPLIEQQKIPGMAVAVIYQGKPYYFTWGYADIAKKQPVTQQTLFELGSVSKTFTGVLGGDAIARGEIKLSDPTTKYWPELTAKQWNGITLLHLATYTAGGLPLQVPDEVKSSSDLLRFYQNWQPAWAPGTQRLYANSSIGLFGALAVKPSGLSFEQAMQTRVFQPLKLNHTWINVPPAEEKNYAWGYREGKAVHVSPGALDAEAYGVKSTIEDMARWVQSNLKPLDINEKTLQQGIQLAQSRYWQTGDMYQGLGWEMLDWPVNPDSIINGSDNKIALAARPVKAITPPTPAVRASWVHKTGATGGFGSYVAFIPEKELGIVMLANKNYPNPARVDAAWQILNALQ
Structure (SMILES),Potency,"activity change, negative = inhibition"
CC(C)CN(C(=O)COC(=O)CSc1ccc([N+](=O)[O-])cc1)C1CCS(=O)(=O)C1 (configuration not stated),"inconclusive [inhibitor, full curve, poor fit]",
O=C(c1ccc(F)cc1)[C@@H]1[C@@H](C(=O)c2ccccc2)[C@@]2(C(=O)Nc3ccccc32)[C@H]2c3ccccc3C=CN12,,inactive: -11.9%
C#C[C@]1(O)CC[C@H]2[C@@H]3CCc4cc(OC)ccc4[C@H]3CC[C@@]21C,,inactive: 0.318%
Cc1ccc(C2(C)NC(=O)N(CC(=O)Nc3ccc(Cl)c(S(=O)(=O)N4CCCCC4)c3)C2=O)cc1 (configuration not stated),"inconclusive [inhibitor, full curve, poor fit]",
COc1ccccc1CNC(=O)C1CCN(Cc2nc(-c3ccc(OC)c(OC)c3)oc2C)CC1,,inactive: -7.85%
COc1ccc2c(COC(=O)[C@@H]3CCCN3S(=O)(=O)c3ccc(Cl)cc3)cc(=O)oc2c1,"inconclusive [inhibitor, full curve]",
CCN1CCN(C(c2cc3cccc(C)c3[nH]c2=O)c2nnnn2Cc2ccccc2)CC1 (configuration not stated),"inconclusive [inhibitor, full curve, poor fit]",
O=C(COC(=O)c1cccc(Br)c1)Nc1ccc2[nH]c(=O)[nH]c2c1,"inconclusive [inhibitor, full curve, poor fit]",
CCC(=O)Nc1c(OC(=O)CC)ccc2c(C)cc(=O)oc12,,inactive: -3.13%
O=C1C2C(C(=O)N1/N=C/c1cccc([N+](=O)[O-])c1)C1C=CC2C12CC2 (configuration not stated),,inactive: -13.5%
CN(N=Nc1ccc([N+](=O)[O-])cc1)c1ccccc1,"inconclusive [inhibitor, full curve, poor fit]",
Cc1ccc(-c2noc(CN(C3CCCCC3)S(=O)(=O)c3ccc(C)cc3)n2)cc1,,inactive: 7.19%
O=C(Oc1ccc(-c2cn3c(n2)SCC3)cc1)c1ccccc1,,inactive: 3.65%
COc1ccccc1CNC(=O)CSC1=NCCS1,,inactive: 1.23%
CCCCn1c(=O)c(C(=O)Nc2ccccc2)c(O)c2ccccc21,,inactive: -11.2%
O=C(Nc1nc2ccc(F)cc2s1)C1CCN(S(=O)(=O)c2cc([N+](=O)[O-])ccc2Cl)CC1,,inactive: -10.1%
O=C(Nc1sc2c(c1C(=O)O)CCC2)c1ccccc1Cl,"inconclusive [inhibitor, partial curve, poor fit]",
COc1cccc(C(C#N)N2N=C(C)CC2(C)C)c1O (configuration not stated),"inconclusive [inhibitor, partial curve]",
COc1ccc2oc(=O)c(C(=O)O)cc2c1,"inconclusive [inhibitor, full curve, poor fit]",
Cc1ccc(S(=O)(=O)n2nc(OC(=O)c3cccs3)cc2N)cc1,,inactive: -4.61%
COc1ccc(-n2nnnc2SCC(=O)Nc2nnn(C)n2)cc1,"inconclusive [inhibitor, full curve, poor fit]",
OC1(C#CCN2CCCC2)CCCCC1,"inconclusive [inhibitor, full curve, poor fit]",
O=S(=O)(c1ccccc1)N1CCN(c2ncnc3sc(-c4ccccc4)cc23)CC1,"inconclusive [inhibitor, partial curve, poor fit]",

Structure (SMILES),Potency,"activity change, negative = inhibition"
CCC(C(=O)Nc1cccc(-c2cn3cccnc3n2)c1)c1ccccc1 (configuration not stated),,inactive: 2%
O=C(Cc1ccccc1[N+](=O)[O-])Nc1ccc2c(c1)OCO2,,inactive: 0.923%
COc1cccc(N2CCN(C(=O)c3ccc(CSc4nc5ccncc5[nH]4)cc3)CC2)c1,"inconclusive [inhibitor, full curve]",
Cc1cccc(-c2nnc(-c3ccccc3)o2)c1,"inconclusive [inhibitor, full curve, poor fit]",
COc1ccc(CC(=O)OCC(=O)N(C)C2CCS(=O)(=O)C2)cc1OC (configuration not stated),"inconclusive [inhibitor, full curve]",
O=C(NCCNC(=O)c1ccccn1)c1ccc(Cl)cc1,,inactive: -8.87%
O=C(CCC(=O)OCc1ccc(Cl)cc1)Nc1cccc([N+](=O)[O-])c1,"inconclusive [inhibitor, full curve, poor fit]",
Cc1ccc(-c2cc3ncc(C(=O)c4cc([N+](=O)[O-])ccc4O)cn3n2)cc1,,inactive: -5.48%
Cc1ccc(O)c(-c2cc(C(=O)Nc3ccc(S(=O)(=O)Nc4nc(C)cc(C)n4)cc3)[nH]n2)c1,"inconclusive [inhibitor, single point]",
Clc1ccccc1C1=CC(c2ccco2)n2ncnc2N1 (configuration not stated),,inactive: 2.31%
O=C(CC1S/C(=N/N=C/c2c[nH]c3ccc(OCc4ccccc4)cc23)NC1=O)Nc1ccccc1 (configuration not stated),"inconclusive [inhibitor, full curve, poor fit]",
COc1ccc2oc(=O)cc(CN3CCOCC3)c2c1,"inconclusive [inhibitor, full curve]",
COc1ccccc1-n1c(SCC(=O)Nc2cccc(C(=O)O)c2)nnc1-c1ccccc1C,"inconclusive [inhibitor, full curve]",
CCN(CC)CCn1c2c(c(SCC(=O)NCc3ccccc3)nc1=O)CCC2,"inconclusive [inhibitor, partial curve, poor fit]",
COc1ccc(NC(=O)CN(C)C(=O)CCCN2C(=O)c3cccc4cccc(c34)C2=O)cc1,"inconclusive [inhibitor, full curve, poor fit]",
CCCC1CCc2c(sc(N)c2C(N)=O)C1 (configuration not stated),"inconclusive [inhibitor, single point]",
Cc1ccc(CN(Cc2ccc(C)o2)C(=S)NCC(=O)O)cc1,"inconclusive [inhibitor, partial curve, poor fit]",
O=C(CCN1CCc2ccccc21)c1ccc2c(c1)OCCO2,"inconclusive [inhibitor, partial curve, poor fit]",
CCOC(=O)c1c(CN2CCN(CCO)CC2)n(C)c2cc(Br)c(OC)cc12,"inconclusive [inhibitor, single point]",
O=C(c1ccc2c(c1)N(Cc1ccccc1)C(=O)c1ccccc1S2(=O)=O)N1CCCCCC1,"inconclusive [inhibitor, partial curve, poor fit]",
COc1ccc(-c2c(C)nn(-c3ccccc3)c2N)cc1,"inconclusive [inhibitor, full curve, poor fit]",
O=C1N=C(N2CCN(c3ccccc3)CC2)S/C1=C\c1cn[nH]c1-c1ccccc1,,inactive: -8.77%
CC(=O)Nc1nonc1-c1nnc(SCC(=O)Nc2cc(C)cc(C)c2)n1-c1ccccc1,,inactive: -2.42%

Structure (SMILES),Potency,"activity change, negative = inhibition"
CCCc1nnc2c(N(C)S(=O)(=O)c3ccccc3)nc3ccccc3n12,"inconclusive [inhibitor, single point]",
COc1ccccc1NC(=S)N1CCC(c2nc3ccccc3o2)CC1,"inconclusive [inhibitor, full curve]",
Clc1ccccc1N1CCN(Cc2ccco2)CC1,"inconclusive [inhibitor, full curve]",
CCCCn1c(N)c(C(=O)NCc2cccs2)c2nc3ccccc3nc21,"inconclusive [inhibitor, partial curve]",
COC(=O)c1ccc(CSc2nc3c(cnn3-c3ccc(C)cc3)c(=O)[nH]2)o1,"inconclusive [inhibitor, full curve]",
COc1cc2c(cc1O)CC[C@@H]1[C@@H]2CC[C@]2(C)[C@@H](O)CC[C@@H]12,"inconclusive [inhibitor, partial curve]",
CC(C)c1ccc(NC(=O)C2CCN(S(=O)(=O)c3ccc4c(c3)NC(=O)CO4)CC2)cc1,,inactive: -1.59%
CCN(CC)C(=O)CSC(=Nc1ccccc1F)NC#N,"inconclusive [inhibitor, full curve, poor fit]",
CCCCN1C2=NCCCN2c2cc(C)c(C)cc21,"inconclusive [inhibitor, single point]",
O=C(CSc1nnc(Cn2c(=O)sc3ccccc32)n1-c1ccccc1)N1CCCCCC1,,inactive: -6.23%
CC1=C(C(=O)Nc2ccccc2)C(CC(C)C)n2nc(SCc3ccccc3C)nc2N1 (configuration not stated),,inactive: 15%
Cc1ccc(-n2nc(C)c(NC(=O)CCl)c2C)cc1C,"inconclusive [inhibitor, partial curve, poor fit]",
CCCc1cc(=O)oc2cc(OCc3ccc(C(=O)O)cc3)ccc12,,inactive: 2.42%
COc1ccc(N(CC(=O)Nc2c(C)n(C)n(-c3ccccc3)c2=O)S(=O)(=O)c2ccccc2)cc1OC,,inactive: -4.34%
O=C(c1ccc(Cl)c(S(=O)(=O)N2CCOCC2)c1)N(Cc1nnc(-c2ccccc2Cl)o1)C1CC1,"inconclusive [inhibitor, full curve, poor fit]",
O=C(N=C1c2ccccc2CN1c1ccc(F)c(Cl)c1)c1cccnc1Cl,"inconclusive [inhibitor, partial curve]",
Cc1ccc(S(=O)(=O)N2CCN(C(=O)C(Cc3ccccc3)NC(=O)c3ccccc3)CC2)cc1 (configuration not stated),"inconclusive [inhibitor, partial curve, poor fit]",
O=C(NCCc1ccccn1)c1ccc(OC2CCN(CCc3ccccc3)CC2)cc1,"inconclusive [inhibitor, partial curve, poor fit]",
CCCN(CCC)C(=O)NC1CC(=O)N(c2ccc(OC)cc2)C1 (configuration not stated),"inconclusive [inhibitor, full curve, poor fit]",
COc1cc(C(=O)NCC(c2ccco2)S(=O)(=O)c2ccccc2)cc(OC)c1OC (configuration not stated),,inactive: 0.748%
Cc1ccccc1OCC(=O)OCC(=O)c1cc(C)n(C2CC2)c1C,"inconclusive [inhibitor, full curve, poor fit]",
